Measured values reported in the supplement of paper PMC8728848.
This is one part of the list.

Columns and labels:
Test in all cases: glycan array binding signal (z-score within array); higher = stronger binding
Conditions in all cases: glycan notation: IUPAC condensed, linker removed
[1] = molecular target: Neu5Ac(a2-3)Gal(b1-4)[Fuc(a1-3)]GlcNAc(b1-3)Gal(b1-4)[Fuc(a1-3)]GlcNAc(b1-3)Gal(b1-4)[Fuc(a1-3)]GlcNAc
In short: (§1)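 The binding signal is a Z-score computed within each array and averaged over linkers. Arrays of the same protein sequence at different concentrations or buffers were also averaged together. Data originate from 3228 arrays in the Consortium for Functional Glycomics database, kept only where the protein sequence was available.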

[2] = molecular target: Neu5Ac(a2-3)Gal(b1-4)[Fuc(a1-3)]GlcNAc(b1-6)[Gal(b1-3)]GalNAc
In short: as §1

[3] = molecular target: Neu5Ac(a2-3)Gal(b1-4)[Fuc(a1-3)]GlcNAc(b1-6)[Neu5Ac(a2-3)Gal(b1-3)]GalNAc
In short: as §1

[4] = molecular target: Neu5Ac(a2-3)Gal(b1-4)[Fuc(a1-3)]GlcNAc6S
In short: as §1

[5] = molecular target: Neu5Ac(a2-3)Gal6S(b1-4)GlcNAc
In short: as §1

[6] = molecular target: Neu5Ac(a2-3)Gal6S(b1-4)[Fuc(a1-3)]GlcNAc
In short: as §1

Neu5Ac(a2-3)GalNAc = molecular target: Neu5Ac(a2-3)GalNAc
In short: as §1

[7] = molecular target: Neu5Ac(a2-3)GalNAc(b1-4)GlcNAc
In short: as §1

[8] = molecular target: Neu5Ac(a2-3)[GalNAc(b1-4)]Gal(b1-4)Glc
In short: as §1

[9] = molecular target: Neu5Ac(a2-3)[GalNAc(b1-4)]Gal(b1-4)GlcNAc
In short: as §1

[10] = molecular target: Neu5Ac(a2-3)[Neu5Ac(a2-6)]GalNAc
In short: as §1

Neu5Ac(a2-6)Gal = molecular target: Neu5Ac(a2-6)Gal
In short: as §1

Neu5Ac(a2-6)Gal(b1-4)Glc = molecular target: Neu5Ac(a2-6)Gal(b1-4)Glc
In short: as §1

[11] = molecular target: Neu5Ac(a2-6)Gal(b1-4)GlcNAc
In short: as §1

[12] = molecular target: Neu5Ac(a2-6)Gal(b1-4)GlcNAc(b1-2)Man(a1-3)Man(b1-4)GlcNAc(b1-4)GlcNAc
In short: as §1

[13] = molecular target: Neu5Ac(a2-6)Gal(b1-4)GlcNAc(b1-2)Man(a1-3)[Gal(b1-4)GlcNAc(b1-2)Man(a1-6)]Man(b1-4)GlcNAc(b1-4)GlcNAc
In short: as §1

[14] = molecular target: Neu5Ac(a2-6)Gal(b1-4)GlcNAc(b1-2)Man(a1-3)[GlcNAc(b1-2)Man(a1-6)]Man(b1-4)GlcNAc(b1-4)GlcNAc
In short: as §1

[15] = molecular target: Neu5Ac(a2-6)Gal(b1-4)GlcNAc(b1-2)Man(a1-3)[GlcNAc(b1-2)Man(b1-4)GlcNAc(b1-2)Man(a1-6)]Man(b1-4)GlcNAc(b1-4)GlcNAc
In short: as §1

[16] = molecular target: Neu5Ac(a2-6)Gal(b1-4)GlcNAc(b1-2)Man(a1-3)[Man(a1-6)]Man(b1-4)GlcNAc(b1-4)GlcNAc
In short: as §1

[17] = molecular target: Neu5Ac(a2-6)Gal(b1-4)GlcNAc(b1-2)Man(a1-3)[Neu5Ac(a2-6)Gal(b1-4)GlcNAc(b1-2)Man(a1-6)]Man(b1-4)GlcNAc(b1-4)GlcNAc
In short: as §1

[18] = molecular target: Neu5Ac(a2-6)Gal(b1-4)GlcNAc(b1-2)Man(a1-6)Man(b1-4)GlcNAc(b1-4)GlcNAc
In short: as §1

[19] = molecular target: Neu5Ac(a2-6)Gal(b1-4)GlcNAc(b1-2)Man(a1-6)[Gal(b1-4)GlcNAc(b1-2)Man(a1-3)]Man(b1-4)GlcNAc(b1-4)GlcNAc
In short: as §1

[20] = molecular target: Neu5Ac(a2-6)Gal(b1-4)GlcNAc(b1-2)Man(a1-6)[GlcNAc(b1-2)Man(a1-3)]Man(b1-4)GlcNAc(b1-4)GlcNAc
In short: as §1

[21] = molecular target: Neu5Ac(a2-6)Gal(b1-4)GlcNAc(b1-2)Man(a1-6)[Man(a1-3)]Man(b1-4)GlcNAc(b1-4)GlcNAc
In short: as §1

[22] = molecular target: Neu5Ac(a2-6)Gal(b1-4)GlcNAc(b1-3)Gal(b1-3)GlcNAc
In short: as §1

[23] = molecular target: Neu5Ac(a2-6)Gal(b1-4)GlcNAc(b1-3)Gal(b1-4)GlcNAc
In short: as §1

[24] = molecular target: Neu5Ac(a2-6)Gal(b1-4)GlcNAc(b1-3)Gal(b1-4)GlcNAc(b1-3)Gal(b1-4)GlcNAc
In short: as §1

[25] = molecular target: Neu5Ac(a2-6)Gal(b1-4)GlcNAc(b1-3)Gal(b1-4)[Fuc(a1-3)]GlcNAc(b1-3)Gal(b1-4)[Fuc(a1-3)]GlcNAc
In short: as §1

[26] = molecular target: Neu5Ac(a2-6)Gal(b1-4)GlcNAc(b1-3)GalNAc
In short: as §1

[27] = molecular target: Neu5Ac(a2-6)Gal(b1-4)GlcNAc6S
In short: as §1

Neu5Ac(a2-6)GalNAc = molecular target: Neu5Ac(a2-6)GalNAc
In short: as §1

[28] = molecular target: Neu5Ac(a2-6)GalNAc(b1-4)GlcNAc
In short: as §1

[29] = molecular target: Neu5Ac(a2-6)GlcNAc(b1-4)GlcNAc
In short: as §1

[30] = molecular target: Neu5Ac(a2-6)GlcNAc(b1-4)GlcNAc(b1-4)GlcNAc
In short: as §1

Neu5Ac(a2-8)Neu5Ac = molecular target: Neu5Ac(a2-8)Neu5Ac
In short: as §1

[31] = molecular target: Neu5Ac(a2-8)Neu5Ac(a2-3)Gal(b1-4)Glc
In short: as §1

[32] = molecular target: Neu5Ac(a2-8)Neu5Ac(a2-3)[GalNAc(b1-4)]Gal(b1-4)Glc
In short: as §1

[33] = molecular target: Neu5Ac(a2-8)Neu5Ac(a2-8)Neu5Ac
In short: as §1

[34] = molecular target: Neu5Ac(a2-8)Neu5Ac(a2-8)Neu5Ac(a2-3)Gal(b1-4)Glc
In short: as §1

[35] = molecular target: Neu5Ac(a2-8)Neu5Ac(a2-8)Neu5Ac(a2-3)[GalNAc(b1-4)]Gal(b1-4)Glc
In short: as §1

[36] = molecular target: Neu5Ac(a2-8)Neu5Ac(a2-8)Neu5Ac(a2-8)Neu5Ac(a2-3)[GalNAc(b1-4)]Gal(b1-4)Glc
In short: as §1

[37] = molecular target: Neu5Ac(b2-6)Gal(b1-4)GlcNAc
In short: as §1

Neu5Ac(b2-6)GalNAc = molecular target: Neu5Ac(b2-6)GalNAc
In short: as §1

[38] = molecular target: Neu5Ac9Ac(a2-3)Gal(b1-3)GlcNAc
In short: as §1

[39] = molecular target: Neu5Ac9Ac(a2-3)Gal(b1-4)GlcNAc
In short: as §1

[40] = molecular target: Neu5Ac9Ac(a2-6)Gal(b1-4)GlcNAc
In short: as §1

[41] = molecular target: Neu5Gc(a2-3)Gal(b1-3)GlcNAc
In short: as §1

[42] = molecular target: Neu5Gc(a2-3)Gal(b1-3)[Fuc(a1-4)]GlcNAc
In short: as §1

Neu5Gc(a2-3)Gal(b1-4)Glc = molecular target: Neu5Gc(a2-3)Gal(b1-4)Glc
In short: as §1

[43] = molecular target: Neu5Gc(a2-3)Gal(b1-4)GlcNAc
In short: as §1

[44] = molecular target: Neu5Gc(a2-3)Gal(b1-4)[Fuc(a1-3)]GlcNAc
In short: as §1

[45] = molecular target: Neu5Gc(a2-6)Gal(b1-4)GlcNAc
In short: as §1

Neu5Gc(a2-6)GalNAc = molecular target: Neu5Gc(a2-6)GalNAc
In short: as §1

[46] = molecular target: Neu5Gc(b2-6)Gal(b1-4)GlcNAc
In short: as §1

B1: LcH (Lens culinaris), P02870 (protein)
chain: TETTSFSITKFSPDQQNLIFQGDGYTGKEGLTLTKVSKETGGRALYSTPIHIWDRDTVNVANFVTNGSQVFRESPNGYNVADGFTFFIAPVDTKPQTGGGYLGVFYNGKEYDKTSQTVAVEFDTFYNAAWDPSNKERHIGIDVNSIKSVNTKSWNLQNGVTSYTLNEVVPLKDVVPEWVRIGFSATTGAEFAAQEVHSWSFNSQLGHTSKS
[1]
  glycan array binding signal (z-score): -0.137
[2]
  glycan array binding signal (z-score): -0.164
[3]
  glycan array binding signal (z-score): -0.14
[4]
  glycan array binding signal (z-score): -0.109
[5]
  glycan array binding signal (z-score): -0.147
[6]
  glycan array binding signal (z-score): -0.116
Neu5Ac(a2-3)GalNAc
  glycan array binding signal (z-score): -0.119
[7]
  glycan array binding signal (z-score): -0.118
[8]
  glycan array binding signal (z-score): -0.116
[9]
  glycan array binding signal (z-score): -0.133
[10]
  glycan array binding signal (z-score): -0.12
Neu5Ac(a2-6)Gal
  glycan array binding signal (z-score): -0.107
Neu5Ac(a2-6)Gal(b1-4)Glc
  glycan array binding signal (z-score): -0.116
[11]
  glycan array binding signal (z-score): -0.103
[12]
  glycan array binding signal (z-score): -0.132
[13]
  glycan array binding signal (z-score): -0.094
[14]
  glycan array binding signal (z-score): -0.146
[15]
  glycan array binding signal (z-score): -0.104
[16]
  glycan array binding signal (z-score): -0.124
[17]
  glycan array binding signal (z-score): -0.12
[18]
  glycan array binding signal (z-score): -0.123
[19]
  glycan array binding signal (z-score): -0.081
[20]
  glycan array binding signal (z-score): -0.116
[21]
  glycan array binding signal (z-score): -0.124
[22]
  glycan array binding signal (z-score): -0.085
[23]
  glycan array binding signal (z-score): -0.135
[24]
  glycan array binding signal (z-score): -0.088
[25]
  glycan array binding signal (z-score): -0.082
[26]
  glycan array binding signal (z-score): -0.092
[27]
  glycan array binding signal (z-score): -0.12
Neu5Ac(a2-6)GalNAc
  glycan array binding signal (z-score): -0.099
[28]
  glycan array binding signal (z-score): -0.142
[29]
  glycan array binding signal (z-score): -0.117
[30]
  glycan array binding signal (z-score): -0.115
Neu5Ac(a2-8)Neu5Ac
  glycan array binding signal (z-score): -0.091
[31]
  glycan array binding signal (z-score): -0.107
[32]
  glycan array binding signal (z-score): -0.13
[33]
  glycan array binding signal (z-score): -0.125
[34]
  glycan array binding signal (z-score): -0.138
[35]
  glycan array binding signal (z-score): -0.119
[36]
  glycan array binding signal (z-score): -0.111
[37]
  glycan array binding signal (z-score): -0.111
Neu5Ac(b2-6)GalNAc
  glycan array binding signal (z-score): -0.131
[38]
  glycan array binding signal (z-score): -0.129
[39]
  glycan array binding signal (z-score): -0.077
[40]
  glycan array binding signal (z-score): -0.086
[41]
  glycan array binding signal (z-score): -0.134
[42]
  glycan array binding signal (z-score): -0.119
Neu5Gc(a2-3)Gal(b1-4)Glc
  glycan array binding signal (z-score): -0.118
[43]
  glycan array binding signal (z-score): -0.121
[44]
  glycan array binding signal (z-score): -0.128
[45]
  glycan array binding signal (z-score): -0.125
Neu5Gc(a2-6)GalNAc
  glycan array binding signal (z-score): -0.128
[46]
  glycan array binding signal (z-score): -0.128
